# Screen size: about 310,000 compounds; about 2,200 (0.71%) showed an effect of 50% or more. Effects have a minus sign here. Some of the results follow.
# Molecular target: human ether-à-go-go-related gene (hERG) potassium channel (human, UniProt Q12809)
# Assay: primary screen, population patch clamp on CHO cells stably expressing hERG
# Chain of human ether-à-go-go-related gene (hERG) potassium channel (Q12809 whole entry, looked up): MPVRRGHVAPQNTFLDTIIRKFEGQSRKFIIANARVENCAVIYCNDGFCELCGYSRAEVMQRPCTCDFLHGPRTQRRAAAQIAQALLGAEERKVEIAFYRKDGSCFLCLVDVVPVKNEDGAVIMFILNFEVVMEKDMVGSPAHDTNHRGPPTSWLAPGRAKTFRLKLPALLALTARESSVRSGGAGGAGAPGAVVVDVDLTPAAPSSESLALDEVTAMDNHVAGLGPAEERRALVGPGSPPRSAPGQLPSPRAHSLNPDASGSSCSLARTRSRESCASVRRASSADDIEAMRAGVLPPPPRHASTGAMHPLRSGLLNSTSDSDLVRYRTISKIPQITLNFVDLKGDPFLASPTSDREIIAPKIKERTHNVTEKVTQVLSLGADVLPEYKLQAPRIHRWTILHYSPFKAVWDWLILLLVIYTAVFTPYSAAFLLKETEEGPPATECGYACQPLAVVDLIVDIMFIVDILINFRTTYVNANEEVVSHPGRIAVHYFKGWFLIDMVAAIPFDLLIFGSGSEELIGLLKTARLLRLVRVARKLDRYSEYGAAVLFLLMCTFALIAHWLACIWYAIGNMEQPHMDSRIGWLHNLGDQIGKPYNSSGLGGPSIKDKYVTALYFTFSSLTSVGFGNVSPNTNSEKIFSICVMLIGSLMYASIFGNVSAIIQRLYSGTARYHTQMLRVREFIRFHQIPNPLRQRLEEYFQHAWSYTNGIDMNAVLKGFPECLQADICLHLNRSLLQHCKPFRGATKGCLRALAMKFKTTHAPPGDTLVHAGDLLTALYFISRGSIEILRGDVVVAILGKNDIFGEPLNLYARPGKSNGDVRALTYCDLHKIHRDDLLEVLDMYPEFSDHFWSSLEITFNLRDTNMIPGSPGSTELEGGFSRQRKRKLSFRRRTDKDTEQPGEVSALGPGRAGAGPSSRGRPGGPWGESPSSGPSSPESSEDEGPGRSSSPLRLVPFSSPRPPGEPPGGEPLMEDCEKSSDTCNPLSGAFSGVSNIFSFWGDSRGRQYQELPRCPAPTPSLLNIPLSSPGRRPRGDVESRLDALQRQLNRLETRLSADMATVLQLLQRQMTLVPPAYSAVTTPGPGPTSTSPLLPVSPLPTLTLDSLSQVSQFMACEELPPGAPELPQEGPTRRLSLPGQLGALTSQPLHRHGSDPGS
row,SMILES,"hERG current change (%, negative = inhibition) at 1uM"
1,CCOC(=O)COc1nc(-c2ccco2)cc(-c2ccco2)c1C#N,11.5%
2,Cc1nnc(-c2cccc(Br)c2)c2cn(-c3ccc(Br)cc3)nc12,-14.1%
3,CC1CCN(S(=O)(=O)c2cccc(S(=O)(=O)N3CCOCC3)c2)CC1,-15.9%
4,COc1ccc(OC)c(/C=N/NC(=O)c2cc[n+](Cc3ccccc3)cc2)c1.[Cl-],3.84%
5,Cc1nc2ccccc2c(=O)n1-c1cc(F)ccc1F,1.27%
6,Cc1cccc(-n2c(SCC(=O)N3CCN(c4ccccn4)CC3)nnc2N2CCOCC2)c1,0.137%
7,O=C(OCCCOC(=O)c1ccc(O)cc1)c1ccc(O)cc1,1.77%
8,C[C@]1(CC/C(=C/CO)CO)[C@H](CO)CC[C@@]23COC(=O)C2=CCC[C@@H]31,19.5%
9,CCNC(=O)COC(=O)c1ccc(-c2nc3ccccc3s2)s1,8.26%
10,Cc1nonc1OCCNCCNc1ccc([N+](=O)[O-])c2cccnc12,-2.21%
11,COc1ccc(NC(=O)C2OCCc3ccccc32)c(OC)c1 (stereo not shown),12.2%
12,C=CCn1c(SCC(=O)Nc2nnc(C)s2)nnc1C1CC1,16.3%
13,CCCNC(=O)c1ccc(N2CCC3(CC2)CC(c2ccccc2)=NO3)c([N+](=O)[O-])c1,-25.4%
14,CCOC(=O)c1c(C)[nH]c(C(=O)COC(=O)CCC2CCCC2)c1C,4.98%
15,CCCC[N+](C)(C)CCC(=O)NC(C)(C)CS(=O)(=O)[O-],-1.09%
16,Cc1cc(NC(=O)c2cc(-c3ccccn3)nc3ccccc23)no1,8.22%
17,CN1CCN(S(=O)(=O)c2ccc(Cl)s2)CC1,9.12%
18,CCS(=O)(=O)Nc1cccc(-c2ccc3nnc(C)n3n2)c1,4.16%
19,Cc1cc(S(=O)(=O)Nc2ccc3c(c2)n(C)c(=O)n3C)ccc1F,8.83%
20,CCOC(=O)CNC(=O)c1sc2nc(C)cc(C)c2c1N,17.2%
21,Cc1ccc(Cn2nc(C)c(NC(=O)c3noc4c3CCCCC4)c2C)cc1,-11.7%
22,O=C(Nc1cnn(Cc2ccc(Cl)cc2Cl)c1)c1noc2c1CCCC2,16.2%

row,SMILES,"hERG current change (%, negative = inhibition) at 1uM"
1,CSCCC1NC(=O)N(CC(=O)N2CCc3ccccc3C2)C1=O (stereo not shown),-0.462%
2,O=C(COc1ccc(Nc2ccccc2)cc1)OCC(=O)N1CCCCC1,14.8%
3,CN(C(=O)CSc1nnc(-c2cccnc2)n1-c1ccccc1F)C1CCS(=O)(=O)C1 (stereo not shown),10.8%
4,Cc1cnc(CN(C)C(=O)CC2C(=O)NCCN2Cc2cccc(F)c2F)[nH]1 (stereo not shown),11.2%
5,COc1ccc(CCNC(=O)CSc2nnc(-c3ccccc3)c3ccccc23)cc1OC,8.01%
6,COC(=O)N/N=C/c1cc(C)n(-c2ccc(Br)cc2)c1C,11.4%
7,O=C1CSC(c2ccccc2)N1CC12CC3CC(CC(O)(C3)C1)C2 (stereo not shown),-1.42%
8,CC1=CC2=NC(=O)/C(=C\c3cccn3CCOc3cc(C)ccc3C)C(=N)N2O1,12%
9,O=C(Nc1nncs1)C1COc2ccccc2O1 (stereo not shown),15%
10,COc1ccc(OC)c(S(=O)(=O)NCCC(C)C)c1,8.96%
11,CC(CCc1ccccc1)NC(=O)c1cc2sccc2n1C (stereo not shown),-0.148%
12,O=C(NC(=S)Nc1ccccc1Br)C1CC1,8.5%
13,O=C(c1ccc(F)cc1)c1c[nH]c(C(=O)NCc2ccco2)c1,2.62%
14,O=[N+]([O-])c1ccccc1S(=O)(=O)NCCSCc1ccco1,9.5%
15,COc1ccc(C(=O)NNC(=O)COc2ccc(Cl)cc2)c(OC)c1,9.45%
16,CS(=O)(=O)c1cnc(-c2ccccc2)nc1-c1ccc(Cl)c(Cl)c1,16.2%
17,COC(=O)C1=C(c2ccc(F)cc2F)C[C@@H]2CC[C@H]1N2C(=O)N1CCC(O)CC1,7.3%
18,O=C(Nc1ccccc1-c1ccccc1)C12CC3CC(CC(C3)C1)C2,9.48%
19,CCN1C(=O)NC(=O)/C(=C\c2cn(CC(=O)O)c3ccccc23)C1=O,10.8%
20,Cc1c(C(=O)N2CCC[C@H]2CO)oc2c(F)cccc12,9.53%
21,O=C1NC(NS(=O)(=O)c2ccccc2)(C(F)(F)F)C(=O)N1c1cccc(Cl)c1 (stereo not shown),6.04%
22,CC(=O)O[C@]1(C(C)=O)CC[C@H]2[C@@H]3C=C(Cl)C4=CC(=O)[C@@H]5C[C@@H]5[C@]4(C)[C@H]3CC[C@@]21C,2.08%

row,SMILES,"hERG current change (%, negative = inhibition) at 1uM"
1,CCCc1cc(-c2ccc3c(c2)COc2c4ccccc4nn2-3)on1,4.47%
2,Fc1ccc(CSc2ncnc3scc(-c4ccccc4)c23)cc1,8.04%
3,COc1ccc(Nc2nc(NCCN3CCOCC3)nc(Nc3ccc(OC)cc3)n2)cc1,-10.1%
4,COc1ccc(/C=C(\C#N)C(=O)N=CN(C)C)cc1,2.91%
5,CCCc1cc(C(=O)NC2CCCN(Cc3ccccc3F)C2)no1 (stereo not shown),8.27%
6,Cc1ccc(S(=O)(=O)n2cc(C=O)c3ccccc32)cc1,4.91%
7,Cc1ccc[n+](CC(=O)N2CCCc3ccccc32)c1.[Cl-],30.7%
8,CS(=O)(=O)N1CCC(C(=O)N2CCN(c3ccccc3F)CC2)CC1,12.7%
9,COc1ccc(C(=O)Nc2ccc(NS(=O)(=O)c3ccccc3)cc2)cc1OC,5.86%
10,Cc1ccc(S(=O)(=O)Nc2ccccc2F)cc1C(=O)NNC(=O)c1ccccc1O,5.99%
11,Cc1cc(C)c(NC(=O)CN(c2ccccc2)S(=O)(=O)N(C)C)c(C)c1,1.04%
12,CCSc1nc2nc(C)cc(C)n2n1,28%
13,Cc1csc(NC(=O)c2cc(C)nc3ccccc23)n1,-13.7%
14,C=C(C)C1CC=C(C)/C(=N\NC(=O)CNc2ccccc2OC)C1 (stereo not shown),18.5%
15,CCCCN(C(=O)CC1CCCC1)c1c(N)n(CCC)c(=O)[nH]c1=O,-1.1%
16,COC(=O)c1ccc(C(=O)N2CCCC(CNC(=O)c3ccccc3Cl)C2)cc1 (stereo not shown),2.8%
17,CN(CC(=O)Nc1c(Cl)cccc1Cl)C(=O)CC1OC(=O)c2ccccc21 (stereo not shown),5.21%
18,O=C(NNC(=O)c1ccccc1F)c1ccc(-n2cncn2)c([N+](=O)[O-])c1,12.5%
19,O=C1c2ccccc2NC(c2ccccc2Br)N1CCCN1CCOCC1 (stereo not shown),7.35%
20,N#Cc1cccc(S(=O)(=O)Nc2c(NC3CCCCC3)c3ccccc3oc2=O)c1,-7.68%
21,CC(=O)OCC(=O)Nc1ccc(Br)c(C)c1,13.5%
22,Cc1onc(-c2ccccc2Cl)c1C(=O)OCn1nnc2ccccc2c1=O,8.12%

row,SMILES,"hERG current change (%, negative = inhibition) at 1uM"
1,COC(=O)C1CCN(C(=O)COC(=O)C2CCN(S(=O)(=O)c3c(Cl)cccc3Cl)CC2)CC1,-1.82%
2,COc1ccc(-c2nc(CS(=O)CC(=O)NCC3CCCO3)c(C)o2)cc1 (stereo not shown),2.15%
3,OCC[C@H]1C[C@@H](O)[C@H](O)[C@]2(CCc3ccccc3CO2)O1,3.84%
4,Cc1ccccc1NS(=O)(=O)c1ccc(C(=O)N2CCN(c3ccccc3O)CC2)cc1,2.23%
5,O=c1c2ccccc2cnn1Cc1n[nH]c(=S)n1-c1ccccc1,18.6%
6,COc1ccc(Cl)c(Cn2c(NCc3ccccn3)nc3c2c(=O)n(C)c(=O)n3C)c1,0.477%
7,COc1ccc(CN(C)C(=O)CNC(=O)c2ccc3ccccc3c2)c(OC)c1,11.4%
8,c1ccc(COn2nnc3ccccc32)c(COn2nnc3ccccc32)c1,7.33%
9,Cc1cc(NC(=O)NCC(F)(F)F)no1,13%
10,CCSc1ccc2nnc(-c3cccs3)n2n1,8.9%
11,CC(C)(C)n1nnnc1CN(Cc1ccc(F)cc1)Cc1ccco1,6.94%
12,Cc1ccc(S(=O)(=O)N2CCCCC2)cc1NC(=O)CSc1ncn[nH]1,13.3%
13,COc1ccc(-c2nn(-c3ccccc3)cc2C(=O)Nc2ccc(C(=O)O)cc2)cc1,13.8%
14,Cc1nc(NC(=O)/C=C/c2ccccc2)sc1C(=O)Nc1ccc(Cl)cc1,4.18%
15,COc1ccc(CCNC(=O)c2ccccc2N(C)S(=O)(=O)c2ccccc2)cc1,1.53%
16,O=C(O)c1cccnc1NC1CCCC1,5.11%
17,Cc1ccc(OCCOc2ccc(Cl)cc2Cl)c([N+](=O)[O-])n1,9.51%
18,O=C(O)c1ccc(-n2nncc2-c2ccccc2)cc1,10.2%
19,COc1ccc(NC(=O)c2cnn(-c3ccccc3)c2C)c(OC)c1,15.8%
20,Cc1[nH][nH]c(=O)c1C(c1ccc(N(C)C)c(Br)c1)c1c(C)[nH][nH]c1=O,17.5%
21,COc1ccc(C(=O)CC(=O)C(=O)Nc2ccccc2OC)cc1,2.15%
22,CCc1cccc(N(CC(=O)NCc2ccc(F)cc2)C(=O)c2csnn2)c1,3.81%

# — article PMC4336329 (PLoS ONE, 2015)
